# Measured values taken from the supplement of paper PMC10126150.
# Values marked as one replicate rest on one cluster of the flow cell; about a third of the high ones do not repeat.
# Tested on: ATP
# Test: switch fluorescence ratio, 500 uM ATP over buffer (Cy3 cluster intensity, sum of 5 cycles each) (fold (ratio)); higher = stronger signal-on switching upon ATP binding; sequences stand for … in TCGTCGGCAGCGTCAGATGTGTATAAGAGACAGTTTTTTTTTTTTTTTTTTTTTTTTT…TC
# Conditions: aptamer strand: ATP DNA aptamer (quencher-CACCTGGGGGAGTATTGCGGAGGAAGG + anchor), 100 nM annealed; ATP concentration: 500 uM; one replicate
# In short: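 For every switch-domain sequence, the fluorescence ratio is the mean of per-cluster values, each being summed target-cycle Cy3 intensity over summed buffer-cycle Cy3 intensity. Clusters outside 100-1000 RFU were excluded. On a modified Illumina MiSeq flow-cell, the Cy3-labelled switching-strand clusters were annealed to 100 nM quencher-labelled ATP aptamer, imaged in selection buffer and then after 15 min with 500 uM ATP at 22 °C. Five such cycles were run, with NaOH stripping and re-annealing between them.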
# 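Also: ATP exposure 15 min at 22 °C before imaging.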
row,Sequence,switch fluorescence ratio
1,AGTGAAAGGG,1
2,GGTGCGGGGC,0.956
3,GTATTGCCGA,0.95
4,TTGGCCAATA,0.976
5,GTAAAACAAA,1.01
6,TAACTAATCA,0.973
7,TAGGAGAGGT,1.12
8,TTCAGGTCCA,1.02
9,ATCGGGTCTG,0.972
10,CCTATCGTA,1.1
11,GAATCATATA,1
12,AATATTATTG,0.982
13,GCTCTCTGGA,1.02
14,CGGATACGTT,0.988
15,AGAATCCGAT,1.01
16,GAGAATTGCT,0.994
17,TTCTCAGCAG,1.93
18,TTTTGCACTG,1.07
19,TAACGCTTGA,1.05
20,TTACAGACTT,1.09
21,TCTGAGGGGC,1.04
22,GGGTTTTCAC,0.957
23,TTGGTTCGGG,0.973

row,Sequence,switch fluorescence ratio
1,TTACGGGTCT,1.01
2,CATATAGCGG,0.989
3,ATCCTATACT,1.07
4,GCAGGCATAG,1.01
5,AGCTAACGGT,1.05
6,CCTAGGACTA,1.01
7,TAATATAAAA,0.997
8,TAGAGGTTGC,1
9,GGTTCTTGAG,0.968
10,CTTGTCGGGC,1.02
11,GACCTTACGC,1.47
12,TAGTTACATA,1
13,GTTGATTGTT,0.995
14,AATCTCTCAT,1.02
15,TACGTGTCCT,1.02
16,GGATGACGAT,0.901
17,TGCTCAACTA,1.02
18,ACTAGGGCAA,0.982
19,TCACAGCCAA,2.36
20,CCCACCCCAC,1.29
21,CGAAACGAGA,0.994
22,ATTGCTTCCG,1.07
23,TATGGCTTGA,0.982

row,Sequence,switch fluorescence ratio
1,CGCAGACGGG,1.15
2,AGTTTCCTTG,0.991
3,GTACCTCGCG,0.973
4,CCTCAGCAA,1.12
5,ATCGTTACG,0.945
6,TTGGGACATT,1
7,ATTTAAACAT,1.09
8,ATTTCACCGG,1.02
9,GGCCCCGCCT,0.993
10,CGCTAATCTG,1.11
11,AAAGCTCATA,1
12,GTGTAGAACT,1.02
13,CGGGTTAAAT,1.04
14,GCTGGTAGAC,1.01
15,AGACGGATAC,1.15
16,CCTTGGATCA,0.972
17,AGGCGACAGC,0.955
18,AAGCCCGGGT,1.1
19,CACAAAGGAA,0.999
20,CGGTCAAGAA,0.986
21,TGCACTGT,1.06
22,TGTATGTTTC,0.961
23,ACACAGTCT,0.987

row,Sequence,switch fluorescence ratio
1,AGAATTAAAT,0.966
2,TCTCTTAAGC,1.01
3,AGGGACTAG,1.03
4,TTTCTAACTT,0.993
5,AGTTCCAGGC,0.985
6,CGTAACGTTT,0.968
7,ACTTTGAACT,0.985
8,AAGATTCGGA,0.892
9,TTTTGTCACA,1.07
10,TGCCGTCCTC,0.993
11,CTCGGCACAG,1.51
12,CGGGGACCTG,0.987
13,AAAAATTCTC,1.01
14,TAGGTATTGG,0.988
15,TCGATTCCTG,0.982
16,TAGGATTCCG,0.933
17,TCTGTGAGCT,0.996
18,GGCTCCAACC,0.975
19,ACAGTTAATT,1
20,GACGAATTAT,1.01
21,AGTTTTGGTT,0.948
22,CGTTCACACA,1.14
23,CTGGATGGGG,1.08

row,Sequence,switch fluorescence ratio
1,GCCGAGGCGA,1.06
2,CACAATAGTT,1.03
3,GGAAATGTTA,0.966
4,GGATAGACCT,1.35
5,TCCATCTGAA,1.02
6,AATAACCTA,1.07
7,AGGTCGTAAG,1.02
8,ACTTGGCGCA,1.04
9,TAAAGTTAT,0.992
10,ACAGATATGC,0.993
11,AACTAGATGT,1.01
12,TCGGTGAAAC,0.973
13,CAGCTAAGCA,1.01
14,CCAAGTGACC,1.11
15,GGCACAAAAT,1.03
16,TTTTGAGCTA,0.953
17,GCAACGTGTT,1.02
18,TGGACTTCAT,1.02
19,GTAACTAAGA,1.02
20,AACCACAGGT,1.05
21,CTTCAAGACA,1.03
22,GGTGCCACG,0.994
23,TCATGTCTGT,0.982

row,Sequence,switch fluorescence ratio
1,AACTGAGAAA,0.971
2,ACTAGCAAAG,1.04
3,CAGTAATGTG,1.01
4,TGGGAAAATA,1.01
5,GAAGTCGGGT,0.958
6,TCTGTATGG,1.03
7,GCCTAAGCGA,1.08
8,GGACACTCAG,1
9,AAAACGTTGA,1.02
10,AGCAGCAATG,1.53
11,AGGGGTTG,0.966
12,TACTGTATG,1.13
13,TCGAGGTTCA,1.04
14,TCGGACGTAA,4.65
15,GGCGATTGAG,1.01
16,ACATCGTGCC,0.987
17,CCTTTCTGAC,1.3
18,GCCGCATTTC,2.33
19,CGCCGAGCGC,0.908
20,AGCCCTAGGG,1.01
21,CAATTGGGCG,1.01
22,GTTGACGAGG,0.996
23,GTAGAAACTT,1.08

row,Sequence,switch fluorescence ratio
1,ATTTGAGTCG,0.962
2,TGCTTCTACG,1.05
3,TAGCTCAGTA,1.01
4,AGTCCCTGTG,0.991
5,GAGCCGGCGG,0.973
6,CGAAGTACTA,1.29
7,AAAGGTTAGT,1.01
8,AATTATTCTC,0.983
9,GTGGGTTTTG,0.987
10,GATCCAGAAC,1.02
11,TAGGAGACCG,1.05
12,CACGGAGTGT,0.998
13,GAAAGACAGT,0.931
14,TGATAAGTGC,1.01
15,ACCATGAGGA,1
16,TTGGTACGTC,1.04
17,GATCGATTCG,0.963
18,ATCTCACGTG,0.991
19,AAGGTGGGCG,1
